Measured values published in article PMC4336329 (PLoS ONE, 2015).
About 2,200 (0.71%) of roughly 310,000 compounds showed an effect of 50% or more. Effects have a minus sign here. The list shows a part of the results.

target: human ether-à-go-go-related gene (hERG) potassium channel (human, UniProt Q12809); experiment: primary screen, population patch clamp on CHO cells stably expressing hERG
Sequence (Q12809 whole entry, looked up): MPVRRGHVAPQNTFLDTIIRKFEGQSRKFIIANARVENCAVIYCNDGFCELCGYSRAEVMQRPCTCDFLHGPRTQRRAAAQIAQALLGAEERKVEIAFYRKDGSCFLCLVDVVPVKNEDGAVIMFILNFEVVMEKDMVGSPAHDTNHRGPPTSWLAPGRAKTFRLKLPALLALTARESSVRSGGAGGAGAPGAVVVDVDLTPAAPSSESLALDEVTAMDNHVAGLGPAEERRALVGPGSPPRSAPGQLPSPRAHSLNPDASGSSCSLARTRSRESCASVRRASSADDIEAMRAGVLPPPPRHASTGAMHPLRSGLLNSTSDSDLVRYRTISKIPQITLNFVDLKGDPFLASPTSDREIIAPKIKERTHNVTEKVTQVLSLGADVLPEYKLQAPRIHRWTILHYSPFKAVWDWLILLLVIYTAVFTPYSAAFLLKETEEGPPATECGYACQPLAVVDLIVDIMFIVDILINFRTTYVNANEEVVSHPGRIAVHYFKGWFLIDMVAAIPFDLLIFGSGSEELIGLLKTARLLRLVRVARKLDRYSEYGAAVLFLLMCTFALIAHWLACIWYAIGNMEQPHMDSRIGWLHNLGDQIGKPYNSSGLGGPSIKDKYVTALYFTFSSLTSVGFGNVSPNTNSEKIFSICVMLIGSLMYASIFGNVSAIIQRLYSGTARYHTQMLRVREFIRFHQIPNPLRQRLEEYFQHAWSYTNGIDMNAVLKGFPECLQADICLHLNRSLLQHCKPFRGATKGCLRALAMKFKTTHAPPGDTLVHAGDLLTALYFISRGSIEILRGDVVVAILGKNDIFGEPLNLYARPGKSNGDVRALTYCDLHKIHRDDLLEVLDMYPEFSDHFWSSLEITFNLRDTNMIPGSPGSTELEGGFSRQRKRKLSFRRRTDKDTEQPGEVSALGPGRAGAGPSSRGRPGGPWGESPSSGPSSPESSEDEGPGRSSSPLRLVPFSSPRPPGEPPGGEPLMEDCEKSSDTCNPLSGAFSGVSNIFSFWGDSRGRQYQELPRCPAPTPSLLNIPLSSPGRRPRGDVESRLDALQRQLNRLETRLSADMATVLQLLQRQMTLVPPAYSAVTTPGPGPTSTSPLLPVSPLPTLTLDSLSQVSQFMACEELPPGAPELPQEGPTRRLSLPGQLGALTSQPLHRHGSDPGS

SMILES	hERG current change (%, negative = inhibition) at 1uM
C=CCN1CCN(C(CC(C)C)c2nnnn2CCOC)CC1.Cl (stereo not shown)	10.8%
COCCn1ccc(O)c(Cc2ccc(Cl)cc2)c1=O	3.77%
Cc1cc(/C=C2\SC(=S)NC2=O)c(C)n1-c1ccccc1	12.5%
CCOc1cccc(/C=N/NC(=O)CC2C(=O)NN=C2C)c1O (stereo not shown)	7.16%
CCOC(=O)c1nc(Nc2ccc(C(=O)O)cc2)c2ccccc2n1.Cl	11.2%
CCOC(=O)N1CCC(NC(=O)CCC(=O)N2CC(C)Oc3ccccc32)CC1 (stereo not shown)	15.4%
COc1ccc(OC)c(C(=O)CSc2nnc(-c3cccs3)n2C)c1	16.3%
CN1CCN(CCCn2cnc3c(=O)oc4ccccc4c32)CC1	10.5%
Cc1cc(C(=O)COC(=O)c2ccc(N)c([N+](=O)[O-])c2)c(C)n1-c1ccc2c(c1)OCO2	10.6%
COc1ccc(CSc2nnc(C)n2N)cc1Br	10.5%
CCC(C)n1c(-c2cccs2)nc2nc3ccccc3nc21 (stereo not shown)	4.84%
Cc1ccccc1C(=O)NNC(=O)c1ccncc1	11.3%
CC(C)c1ccc(CNn2cnnc2)cc1	8.36%
Cc1ccc(-c2csc(/C(C#N)=C(\O)CN3CCN(C(=O)c4ccco4)CC3)n2)cc1	5.32%
COc1ccccc1-c1nnc(SC2CCc3ccccc3NC2=O)s1 (stereo not shown)	7.16%
Cc1ccc(NC(=S)N2CCN(c3ccccc3F)CC2)c(C)c1	10.7%
Cc1c(N=Nc2c(O)n(Cc3ccccc3)c(=O)[nH]c2=O)c(=O)n(-c2ccccc2)n1C	2.16%
O=C(NCC(c1ccco1)N1CCc2ccccc21)c1ccccc1Cl (stereo not shown)	-25.9%
Cc1ccc(C)c(OCC(=O)OCC(=O)Nc2c(C)nn(-c3ccccc3)c2C)c1	7.06%
COc1ccc(C2C=C(c3ccccc3)Nc3ncnn32)cc1 (stereo not shown)	2.73%
COc1ccc(NC(=O)Nc2cccc([N+](=O)[O-])c2)cc1Cl	-0.718%
O=C(NCC1CCCO1)c1ccc2c(c1)N(Cc1ccccc1)C(=O)CS2 (stereo not shown)	9.73%
Cc1ccc(OC(F)F)c(NC(=O)Nc2cccc(C(F)(F)F)c2)c1	-6.24%

SMILES	hERG current change (%, negative = inhibition) at 1uM
Cn1cc(CCNC(=O)CC2C(=O)NCCN2Cc2cccc(Oc3ccccc3)c2)cn1 (stereo not shown)	9.15%
COc1cccc(C(=O)N(Cc2ccc3c(c2)OCO3)Cc2nc3ccccc3c(=O)[nH]2)c1	7.79%
COc1ccc(C)cc1NC(=O)c1ccc(NC(=O)CC2SC(N3CCCC3)=NC2=O)cc1 (stereo not shown)	12.5%
CCOc1ccc2[nH]c(C)c(CN(C)C)c(=O)c2c1	16.9%
CC1CCN(CCCNC(=O)c2cc3c(=O)n(C)c4ccccc4c3n2C)CC1	-1.66%
CCOc1ccc(C)cc1S(=O)(=O)n1ccc(C)n1	9.83%
COc1cccc(/C=N/Nc2nc3ccccc3n3cnnc23)c1O	10.2%
COc1cccc(CNC(=O)CCNC(=O)c2ccc(Br)o2)c1	16.7%
COC(=O)C1=C(NC(=O)c2cccc(OC)c2)CCS1	14.3%
CCN1C(=O)CC(NCc2ccc3c(c2)OCO3)C1=O (stereo not shown)	-4.21%
C=CCN(C(=O)c1csnn1)C(C(=O)NC1CCCCC1)c1ccc(Cl)cc1 (stereo not shown)	7.27%
CCOC(=O)N1CCC(NC(=O)c2cc3c(-c4ccc(Cl)cc4)nn(C)c3s2)CC1	4.21%
COC(=O)c1ccc(-c2nc3ccc(C)cc3o2)cc1	-2.58%
CN(C)/C=C/C(=O)c1cnc2n(c1=O)CCS2	3.09%
Cc1ccc(CNC(=O)[C@H](C)NC(=O)C2CCN(C(=O)[C@@H]3CCCN3C(=O)OC(C)(C)C)CC2)cc1	0.578%
COc1ccc(-c2[nH]ncc2CNC(C)Cc2ccsc2)c(F)c1 (stereo not shown)	-9.39%
CC(C)C(NC(=O)c1ccc(C(C)(C)C)cc1)C(=O)NCCc1ccccn1 (stereo not shown)	5.88%
CC(C)c1ccc(NC(=O)NC2CCCCC2)cc1	9.49%
N#Cc1nc(-c2cccs2)oc1NCc1ccccc1Cl	13.7%
CCC(C)n1c(O)c(C=Nc2cccc(C(F)(F)F)c2)c(=O)[nH]c1=S (stereo not shown)	3.06%
Cc1c(Cl)c([N+](=O)[O-])nn1CC(=O)N1CCN(Cc2ccccc2)CC1	-22.8%
N#C/C(=C(/O)CN1CCN(c2ccccc2F)CC1)c1nc(-c2ccccc2)cs1	19.2%
Cc1ccc(N/C(CSC(N)=O)=N/S(=O)(=O)c2ccccc2)cc1	-3.79%

SMILES	hERG current change (%, negative = inhibition) at 1uM
N#Cc1c(NC(=O)Cn2nc(C(F)(F)F)c3c2CCCC3)sc2c1CCC2	-0.645%
S=C(c1cn(Cc2ccc(Br)cc2)c2ccccc12)N1CCOCC1	5.53%
CC(=O)NC(CC(=O)OCC(=O)c1c(N)n(C)c(=O)n(C)c1=O)c1ccccc1 (stereo not shown)	7.04%
CSc1nnc(C)c(=O)[nH]1	13.1%
CCOC(=O)/C=C1\SCC(=O)N1CC(=O)c1ccc[nH]1	15.9%
C=CCn1c(O)c(C(C)=Nc2ccc(N(CC)CC)cc2)c(=O)[nH]c1=O	-1.29%
O=S(=O)(NN1CCOCC1)c1ccc(Br)cc1	7.45%
CCN(CC)C(=O)Cn1cc(S(=O)(=O)CC(=O)NCc2ccc3c(c2)OCO3)c2ccccc21	10.4%
Nc1nnc(CCS(=O)(=O)c2cc(Cl)ccc2Cl)s1	-4.93%
CCOC(=O)CSc1nc(NCc2ccco2)c2ccccc2n1	-9.13%
C=CCN(CC=C)Cc1c[nH]c2ccccc12	5.11%
CCCC(C(=O)NC1CCCC1)N(CC1CCCO1)C(=O)CNS(=O)(=O)c1ccccc1 (stereo not shown)	18.1%
Cn1cc(-c2nnnn2-c2ccc(Cl)cc2)c(C(F)(F)F)n1	6.75%
CC1CCC(NCCc2ccc3c(c2)OCO3)CC1.O=C(O)C(=O)O (stereo not shown)	-0.635%
CC(C)[C@H](NC(=O)[C@@H]1Cc2ccccc2CN1)C(=O)NC1CCCCC1	-2.56%
C=CCNc1nc(N2CCOCC2)nc(N2CCOCC2)n1	5.34%
CCc1cccc2c(C=C(C#N)C#N)cn(CC(=O)N3CCCC3)c12	2.04%
O=C(Oc1cccnc1)c1ccc(Cl)c(Cl)c1	4.94%
Cc1ccccc1NC(=O)/C(=C/c1ccccc1)c1ccccc1	8.64%
Cc1ccc(S(=O)(=O)N2CCOCC2)cc1C(=O)NCc1cccs1	8.57%
CCOC(=O)[C@H]1[C@H]2COc3cc(OC)ccc3[C@@H]2N2C(=O)c3cc(OC)ccc3NC(=O)[C@@]12C	8.59%
CCCc1cc(N2CCC(C(N)=O)CC2)nc(-c2ccccc2)n1	-2.87%
OC(COCc1cccs1)CN1CCN(c2cccc(C(F)(F)F)c2)CC1 (stereo not shown)	-14.8%

SMILES	hERG current change (%, negative = inhibition) at 1uM
Cc1ccc(C(=O)NCC(=O)OCC(=O)Nc2cc(C)c(C)cc2[N+](=O)[O-])cc1	12.1%
CC1CC(C)CN(C(=O)CSCC(=O)Nc2nc(-c3cccs3)cs2)C1 (stereo not shown)	14%
COc1ccc(NC(=O)CC(=O)Nc2ccc(OC)cc2OC)c(OC)c1	2.93%
Cc1ccc(-c2nnn(CC(=O)NCCc3ccc4c(c3)OCO4)n2)o1	12%
Cc1ccccc1NC(=S)NC1CCN(Cc2ccccc2)CC1	3.73%
O=C(NCCC(=O)N1CCN(c2ncccn2)CC1)c1ccccc1	13.8%
CC(=O)OCCCN1c2ccccc2Nc2nnc(-c3ccccc3)cc21	-5.14%
Cc1ccccc1C1NS(=O)(=O)N=C1N (stereo not shown)	12.3%
N/C(=N\OC(=O)Oc1ccccc1)c1cccc([N+](=O)[O-])c1	7.58%
Cc1ccsc1/C=C1/C(=O)NN(c2ccccc2)C1=O	2.94%
COc1ccccc1NC(=O)CNC(=O)c1ccccc1C	9.5%
Cc1cc(NC(=O)CN2CCOCC2)n(-c2nc3ccccc3s2)n1	16%
CCCCCCCCN1[C@@H](CC(=O)OC)c2cc(C(F)(F)F)ccc2S1(=O)=O	14%
COc1ccc(NC(=O)c2ccco2)cc1NC(=O)c1ccc(C)cc1	16.5%
CC(C)CC(=O)N=C1SC2CS(=O)(=O)CC2N1Cc1ccccc1Cl (stereo not shown)	12.8%
Cc1ccc(-c2nc(CN3CCN(C(=O)C4CCCO4)CC3)cs2)cc1 (stereo not shown)	18.1%
Cc1ccc(N=C2CSC(=O)N2)cc1	6.29%
CC1CCCCC1NC(=O)CCNS(=O)(=O)c1ccc2c(c1)CCC(=O)N2 (stereo not shown)	11.3%
O=C(COc1ccccc1)OCC(=O)c1c[nH]c2ccccc12	6.35%
COc1ccc(CC(=O)c2ccc(OC)c(OC)c2C)cc1OC	4.93%
CCOC(=O)C(=CNc1ccc2c(c1)c1ccccc1n2CC)C(=O)OCC	15.2%
Cc1ccccc1-c1nc(CN2CCC(C(=O)NCCCN3CCOCC3)CC2)c(C)o1	5.85%
